Source: PMC12136788
This is one part of the list.

B1: chr5:141515350:141515460:-|3pUTR|ENSG00000131504|msi1_unk|total|mutant (ssRNA)
RNA: GGGAGUUCUACAGUCCGACGAUCCUCAGCUUUCCAUCCCCAGCCCGGAAGAAAGAAUGGCACUCUUGGGCUUGGCCCAGAAUCCGAGUUAUCCGAGCAAGAGAGAGCUCCGGAAGCAUGAGGGCAACUACCGUGAGGCCUUAUCAACAGAGGAUUGAGCAUCA
B2: chr3:48857559:48857660:-|3pUTR|ENSG00000178537|unk|FALSE|unique (ssRNA)
RNA: GGGAGUUCUACAGUCCGACGAUCGGCUGAAGGCUGCUCAAGUUCACUUCUGGAUGCUGGAAGCUGUCGUUGAGGAGAAGGAGUAGUAAGCAGAACUAAGCAGUCUUGGAGGGCAAGGGGAGGGGAAUGGUGAGAUCCGAGCCCCAACAGAGGAUUGAGCAUCA
B3: chr12:14501823:14501924:+|3pUTR|ENSG00000171681|unk|FALSE|unique (ssRNA)
RNA: GGGAGUUCUACAGUCCGACGAUCUUUUGUUGUUUGCUCUUUUGCUUUAAAUAUUCUCCAAAUUACCAUUUAUGCAACAUGGUUAGGGUUAAUACUGCAUGGUAUUCAUUUAUCUUGUUUCAUGAACUUUCCAGUACUGUACAACAACAGAGGAUUGAGCAUCA
B4: chr6:13639604:13639705:-|CDS|ENSG00000010017|unk|FALSE|unique (ssRNA)
RNA: GGGAGUUCUACAGUCCGACGAUCGAUAGUGAAGUACGAUGUUUGGGAGGCCGAAGUCCAAAGUCUCAAGACAGUUAUCCUGUUAGUCCUCGACCUUUUAGUAGUCCAAGUAUGAGCCCCAGCCAUGGAAUGAAUAUCCACAAUCAACAGAGGAUUGAGCAUCA
B5: chr5:149977868:149977977:+|CDS|ENSG00000155850|unk|FALSE|unique (ssRNA)
RNA: GGGAGUUCUACAGUCCGACGAUCUAUUAAAAAGCUGCAGAAGAAUUGCCAGUGCAGUCCAGCCAAAGCCAAAAAUAUGAUUUUAGGUUUCCUUCCUGUUUUGCAGUGGCUCCCAAAAUACGACCUAAAGAAAAACAUUUUAGGCAACAGAGGAUUGAGCAUCA
B6: chr18:3457781:3457936:+|CDS|ENSG00000177426|unk|FALSE|unique (ssRNA)
RNA: GGGAGUUCUACAGUCCGACGAUCCAACACUCCUCCCCCUACUCCACCGGACCUCAACCAGGACUUCAGUGGAUUUCAGCUUCUAGUGGAUGUUGCACUCAAACGGGCUGCAGAGAUGGAGCUUCAGGCAAAACUUACAGCUUACAACAGAGGAUUGAGCAUCA
B7: chr20:25297698:25297799:+|3pUTR|ENSG00000100994|msi1|FALSE|unique (ssRNA)
RNA: GGGAGUUCUACAGUCCGACGAUCCCCAAGAGAGAGGGCAGGGAACAGGCUACUGUCCUUCCCUGUGGAAUUGCCGAGAAAUCUAGCACCUUGCAUGCUGGAUCUGGGCUGCGGGGAGGCUCUUUUUCUCCCUGGCCUCCAGUGCAACAGAGGAUUGAGCAUCA
B8: chr3:154276180:154276282:-|CDS|ENSG00000174953|unk|total|mutant (ssRNA)
RNA: GGGAGUUCUACAGUCCGACGAUCUCAUCCUGCCGACUGGAAUGACACUAAAUCCAGAGACUGUGCAGUACUGUCAGCUAUUACCGACUUGAUCAAAACACAGGAAAAGGCAACUCCCAGGAACUUUCCGCCACGAUUCCAGGACAACAGAGGAUUGAGCAUCA
B9: chr11:35810521:35810622:+|3pUTR|ENSG00000166326|unk|FALSE|bound_elsewhere (ssRNA)
RNA: GGGAGUUCUACAGUCCGACGAUCCCAGAAACCAUAAGACUCAGGCAGUUCUUGAUUCUGGAGGCCUGCCUGGUAAGAUAAGAUAGUAUAAUUUGGAACUGAGAACAUACCAGAAACAGCAGAACGAGGGCCAGAGCAGAAAAACAACAGAGGAUUGAGCAUCA
B10: ENSG00000136451:be:win_1301|CDS|ENSG00000136451|bound_else_gene|NA|bound_elsewhere_windowed (ssRNA)
RNA: GGGAGUUCUACAGUCCGACGAUCUUAACAUAACCAGCCCAAUGAACAUAGGGCAUCCUGUAACUAUAACCAGUCCAUUAUCCAUGACCUCUCCUUUAACACUCACUACCCCAGUCAACCUCCCCACCCCCGUCACUGCCCCAGCAACAGAGGAUUGAGCAUCA
B11: chr19:15272971:15273072:-|CDS|ENSG00000141867|msi1|total|mutant (ssRNA)
RNA: GGGAGUUCUACAGUCCGACGAUCGUCUGCGGAGAGCGGCCCUGGGACGAGAUUGAGAAAUCUGCCAGUAAUGGGGGAUGGACCCGAAACUUCCCAAAUGUCUACAACACAGGCCCAGGCCCAACCCCAGCCAGCCAACGCAGCCAACAGAGGAUUGAGCAUCA
B12: ENSG00000070961:be:win_6201|3pUTR|ENSG00000070961|bound_else_gene|NA|bound_elsewhere_windowed (ssRNA)
RNA: GGGAGUUCUACAGUCCGACGAUCAUCCCAAAUGUUUUUAAUCUUUGUAUAUUUUUUAAAAAUCCUUUUCUCCUCAUCAUUGCCUUUUUUGUGGUUGUAAAUAGACUUACUUGCACUUUGAAGAUGAGUUACUCCUUGUCAUCUCAACAGAGGAUUGAGCAUCA
B13: chr2:55866929:55867030:-|3pUTR|ENSG00000115380|msi1|FALSE|unique (ssRNA)
RNA: GGGAGUUCUACAGUCCGACGAUCAUUUAAGUCAGCCAAAGAAUAUUGUUACCUUAAAGCACUAUUUUAUUUAUAGAUAUAUCUAGUGCAUCUACAUCUCUAUACUGUACACUCACCCAUAAUUCAAACAAUUACACCAUGGUACAACAGAGGAUUGAGCAUCA
B14: chr6:119178661:119178762:-|3pUTR|ENSG00000111885|msi1|FALSE|unique (ssRNA)
RNA: GGGAGUUCUACAGUCCGACGAUCGAAAGAAGCUUUGCCAAUUUUACUUAUUCGUGAUCAAUCAAGGAAAAUCUAAUAAAUUUUAGGCCAAAUAAGAAUAUAGCAUAUUUAGUAUGGUUAUAGUCAACACAGAGAUCACAACUUCAACAGAGGAUUGAGCAUCA
B15: ENSG00000070961:be:win_6051|3pUTR|ENSG00000070961|bound_else_gene|NA|bound_elsewhere_windowed (ssRNA)
RNA: GGGAGUUCUACAGUCCGACGAUCCAGAAAUUUCCAGAGCAUUAUGUAGGUAGAAAAAAAUGCAAGCAAGCUGUUAAAGAUCUUGGAUCCCAUUAUAUAGUAUGUAUAGCUGAAAUCUGUAAUUCAAUCACUUUUUCUCUUUUACAACAGAGGAUUGAGCAUCA
B16: chr8:17299120:17299221:-|3pUTR|ENSG00000003987|unk|total|mutant (ssRNA)
RNA: GGGAGUUCUACAGUCCGACGAUCUCCUCAUUAUUUAAAAAUGCUAAACCUUGUAUCUCACUUUUUCUCUAACACUGAUUUAACCGCUAACGAGGCCGAAGCAACAUUCAUUCUCCUGGUCUUACAUAUGAAUUUAAGUAUCAGCAACAGAGGAUUGAGCAUCA
B17: chr19:1230895:1231275:-|CDS|ENSG00000099625|control|control|control (ssRNA)
RNA: GGGAGUUCUACAGUCCGACGAUCUCAGUAGAUGGAGGUGCUAGGGGUGGACCUGUGGGCCCUUGCCCCCCUUCGCCCCCCCCUAGGCGGCCCAGGGAGCGCUCUCCAGGCCCCGUGGACACGCGCUCGCCUGCCUCCAGCGGCCAACAGAGGAUUGAGCAUCA
B18: ENSG00000136451:be:win_1151|CDS|ENSG00000136451|bound_else_gene|NA|bound_elsewhere_windowed (ssRNA)
RNA: GGGAGUUCUACAGUCCGACGAUCUGUGCCAAACCUCCACGGCUGCUACGACACCUGUGACUCUCACUACUCCAUUCAGUAUAACAUCCUCUGUGUCGUCUGGGACUAUGUCAAACCCAGUCACAGUGGCAGCUGCAAUGAGCACAACAGAGGAUUGAGCAUCA
B19: chrX:153695679:153695780:+|3pUTR|ENSG00000130821|msi1|total|mutant (ssRNA)
RNA: GGGAGUUCUACAGUCCGACGAUCGGCAGCAGAACCAAGGCAAAUAUUUCAGCUGGGCUAUACCCCUCUCCCCAUCCCUGUUACCGAAGCUCCGAGAGCCAGCCAGCAAUGGAACCUUCUGGUUCCUGCGCCAAUCGCCACCAGCAACAGAGGAUUGAGCAUCA
B20: chr17:1004907:1005008:-|3pUTR|ENSG00000159842|msi1|total|mutant (ssRNA)
RNA: GGGAGUUCUACAGUCCGACGAUCAAGAGGGGCCAGGCUUCCUGGAGGGUGACUGAUGUGGCCGAAGCAGGUGUCCAGGCAGGCCGGCUGCAGCCAGGAGCUCCCUGGCACCGCAGGACCUCGUGGUACUCUUGCCUCCGAUUUCAACAGAGGAUUGAGCAUCA
B21: chr4:112276399:112276500:-|3pUTR|ENSG00000145365|unk|FALSE|unique (ssRNA)
RNA: GGGAGUUCUACAGUCCGACGAUCUUAUUCCCUGUGAUGCCCAGAGUAAUGGCCCAUCCAAAGAUGUCCAGAUGUCCAUGUGCUAGUCUCCAGAACUUGUAACUGUGUUGUUAUGUGGCAAAGGGGAAUGAAGGCUGCAGAUGGCAACAGAGGAUUGAGCAUCA
B22: chr6:149889094:149889339:-|three_prime_utr|ENSG00000164520|control|control|control (ssRNA)
RNA: GGGAGUUCUACAGUCCGACGAUCGGCAGCUCCCUUUAAAGGUCAAAAGCCUUCCCUGUGUGGGUGUCAGUGUGUGUGUGCGAUAGAAAAUUUGAUUGACUUCUCCGUGGGCUUCCUGUCUGGAGAGUCAGUGAUGGCUAUAAGCAACAGAGGAUUGAGCAUCA

Molecular target: MSI1 full-length (mouse, UniProt Q61474 1-362)
Test: nsRBNS (natural sequence RNA bind-n-seq); RBNS binding buffer (assumed for nsRBNS): 25 mM Tris pH 7.5, 150 mM KCl, 3 mM MgCl2, 0.01% Triton X-100, 500 ug/ml BSA, 20 U/ml SUPERase-In, 4 C; UNK is unkempt and MSI1 is Musashi-1; names of the RNAs are library labels; protein concentration not given here; high values mean tight binding

Chain of UniProt Q61474 (Q61474 whole entry): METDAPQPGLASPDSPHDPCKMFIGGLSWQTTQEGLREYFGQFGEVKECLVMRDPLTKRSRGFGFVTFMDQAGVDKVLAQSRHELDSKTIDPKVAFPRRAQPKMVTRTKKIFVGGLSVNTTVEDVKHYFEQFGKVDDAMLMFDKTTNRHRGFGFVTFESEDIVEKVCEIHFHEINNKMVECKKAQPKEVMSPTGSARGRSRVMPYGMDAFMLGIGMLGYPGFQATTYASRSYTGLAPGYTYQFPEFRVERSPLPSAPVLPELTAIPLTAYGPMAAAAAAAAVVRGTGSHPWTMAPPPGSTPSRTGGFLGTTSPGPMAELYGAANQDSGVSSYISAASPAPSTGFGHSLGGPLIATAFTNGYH

Binder	binding signal
B1	0.337 enrichment R
B2	0.735 enrichment R
B3	0.421 enrichment R
B4	1.45 enrichment R
B5	0.174 enrichment R
B6	0.537 enrichment R
B7	0.329 enrichment R
B8	0.377 enrichment R
B9	4.44 enrichment R
B10	2.59 enrichment R
B11	0.563 enrichment R
B12	2.22 enrichment R
B13	1.56 enrichment R
B14	6.72 enrichment R
B15	37.4 enrichment R
B16	6.95 enrichment R
B17	0.332 enrichment R
B18	0.425 enrichment R
B19	0.58 enrichment R
B20	0.486 enrichment R
B21	0.384 enrichment R
B22	0.676 enrichment R
